# Source: PMC4336329 (PLoS ONE, 2015)
# Hit rate of the full screen: of about 310,000 compounds, about 2,200 (0.71%) showed an effect of 50% or more. Effects have a minus sign here. This is one part of the list.
# Biological target: human ether-à-go-go-related gene (hERG) potassium channel (human, UniProt Q12809)
# Assay: primary screen, population patch clamp on CHO cells stably expressing hERG
# human ether-à-go-go-related gene (hERG) potassium channel, sequence (Q12809 whole entry, looked up): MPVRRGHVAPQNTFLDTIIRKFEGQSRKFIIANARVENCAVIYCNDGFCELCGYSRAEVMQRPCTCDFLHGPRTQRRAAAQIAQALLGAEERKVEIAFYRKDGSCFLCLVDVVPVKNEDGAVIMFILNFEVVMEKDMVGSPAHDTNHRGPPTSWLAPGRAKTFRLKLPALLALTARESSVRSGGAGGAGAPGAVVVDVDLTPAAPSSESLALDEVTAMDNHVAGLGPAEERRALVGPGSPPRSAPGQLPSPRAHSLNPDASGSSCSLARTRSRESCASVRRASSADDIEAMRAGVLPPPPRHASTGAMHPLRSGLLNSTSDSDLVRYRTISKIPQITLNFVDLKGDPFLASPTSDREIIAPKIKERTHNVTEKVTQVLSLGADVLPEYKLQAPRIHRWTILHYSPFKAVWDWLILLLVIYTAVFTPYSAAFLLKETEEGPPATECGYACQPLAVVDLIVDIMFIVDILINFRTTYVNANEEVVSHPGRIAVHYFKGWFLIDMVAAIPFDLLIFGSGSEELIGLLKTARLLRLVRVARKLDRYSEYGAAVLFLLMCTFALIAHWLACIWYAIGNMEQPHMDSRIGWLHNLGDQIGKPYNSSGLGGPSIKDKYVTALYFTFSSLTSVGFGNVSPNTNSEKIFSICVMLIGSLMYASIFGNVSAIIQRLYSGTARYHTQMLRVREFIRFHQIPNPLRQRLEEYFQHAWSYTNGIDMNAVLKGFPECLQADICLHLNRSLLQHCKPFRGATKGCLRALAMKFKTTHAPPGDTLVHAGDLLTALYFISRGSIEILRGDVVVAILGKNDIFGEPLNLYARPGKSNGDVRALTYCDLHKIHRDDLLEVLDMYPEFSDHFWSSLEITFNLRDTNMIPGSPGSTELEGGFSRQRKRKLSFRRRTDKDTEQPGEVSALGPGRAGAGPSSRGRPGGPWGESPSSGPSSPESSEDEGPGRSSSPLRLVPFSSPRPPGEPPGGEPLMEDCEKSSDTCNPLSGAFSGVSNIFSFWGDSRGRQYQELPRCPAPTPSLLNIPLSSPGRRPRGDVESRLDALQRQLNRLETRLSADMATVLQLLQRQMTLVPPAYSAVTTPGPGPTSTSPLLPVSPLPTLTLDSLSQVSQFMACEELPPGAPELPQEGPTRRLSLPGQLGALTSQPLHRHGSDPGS
row,Compound,"hERG current change (%, negative = inhibition) at 1uM [%]"
1,CCCCc1nc(NCc2ccccc2)c(C#N)c2c1COC(C)(C)C2,10.9
2,CCCCN(C(=O)C1CCCC1)c1c(N)n(CC(C)C)c(=O)[nH]c1=O,7.38
3,Cc1nn(CC(=O)N(C)C)c(=O)c2ccccc12,17.6
4,Cc1ccc(CNC(=O)CCS(=O)(=O)c2ccc3c(c2)NC(=O)C(C)S3)cc1 (stereo not shown),14.7
5,CN1CCN(NC(=O)/C=C/c2cccc(Cl)c2)CC1,9.72
6,O=C1NN(c2ccc(F)c(Cl)c2)C(=O)/C1=C\c1cccc(OC(=O)c2cccs2)c1,7.88
7,Cc1cccc(/C=C/c2onc(C)c2S(=O)(=O)N2CCC(C(=O)NC(C)C)CC2)c1,-1.56
8,COc1cc(C2C(C#N)=C(N)Oc3c2c(-c2ccccc2)nn3-c2ccccc2)cc(OC)c1OC (stereo not shown),-9.81
9,O=C(CCCn1c(=S)[nH]c2cc3c(cc2c1=O)OCO3)N1CCc2ccccc2C1,5.44
10,CCc1ccc(NC(=S)N2CCN(c3cccc(C(F)(F)F)c3)CC2)cc1,5.18
11,CC1CCN(C(=O)c2ccc3c(Cl)c4c(nc3c2)CCCC4)CC1,5.91
12,O=C(Cn1cc(C(F)(F)F)cc(Cl)c1=O)NCc1ccccc1,19.7
13,Cc1cc(C)nc(/N=C2\NC(=O)CC3C(=O)NCCN23)n1 (stereo not shown),13.1
14,COC(=O)CSc1nnc(-c2cccnc2)o1,16.7
15,CCOc1ccc(NC(=O)NC(C)CC)cc1 (stereo not shown),12.4
16,Cc1noc(C)c1C(=O)N(CC(C)C)c1nc2ccccc2s1,7.73
17,Cc1ccccc1Cn1cc(NC(=O)c2noc3c2CC(C(C)(C)C)CC3)cn1 (stereo not shown),5.76
18,C=C1[C@H]2C[C@H]3[C@H]4N5C[C@]6(C)CCC[C@]47[C@H]([C@H]2O)[C@]3(C[C@]5(O)[C@H]67)[C@@H]1O,9.03
19,O=C1NC(=O)N(Cc2ccc(F)cc2)C(=O)/C1=C\c1ccoc1,10.4
20,S=c1[nH]c2cc(Cl)c3cccnc3c2o1,17.6
21,CN1CCN(C(=O)C2=C[C@H](C(C)(C)C)C[C@H](OCCCCO)O2)CC1,5.72
22,COc1cc(/C=N/n2cnnc2)ccc1OC(=O)c1cccnc1,7.19
23,CC(C)N1CCN(C2CSCCSC2)CC1CCO (stereo not shown),7.25
24,ClCC1CN(Cc2ccccc2Cl)CCO1 (stereo not shown),14.1
25,Nc1c(C(=O)Nc2nccs2)sc2nc(-c3cccs3)cc(C(F)(F)F)c12,17.2
26,CCOC(=O)C1=C(C)N(c2ccccc2)C(=O)NC1c1cccc([N+](=O)[O-])c1 (stereo not shown),-5.01
27,CCOc1ccc(C(=O)C[n+]2cccc3cc(C)ccc32)cc1.[Br-],6.54
28,CCOC(=O)CSc1nc2c(c(=O)[nH]c(=O)n2C)n1Cc1ccccc1,-0.8

row,Compound,"hERG current change (%, negative = inhibition) at 1uM [%]"
1,O=C(Nc1ccc(Oc2ccccc2)cc1)C1CCCO1 (stereo not shown),5.59
2,NC(=O)[C@H]1CC2(CC(c3cccc(NC(=O)COc4ccc(Cl)cc4)c3)=NO2)CN1C(=O)c1ccc(Cl)cc1 (stereo partly shown),6.47
3,CCOC(=O)CSc1nc(N)nc(C)c1Br,-3.35
4,CCOC(=O)N1CC=C2C(C#N)=C(N)C(C#N)(C#N)[C@H](c3ccsc3)[C@H]2C1,11.7
5,CCN1C(=O)/C(=C\c2nc3ccccc3c(=O)n2CC)c2ccccc21,4.8
6,CCOC(=O)N1CCN(C(=O)C(CC(C)C)NS(=O)(=O)c2ccc3c(c2)oc(=O)n3C)CC1 (stereo not shown),-2.28
7,COc1ccc(CCC(=O)N(C)CC(=O)Nc2ccc(Cl)c(C(F)(F)F)c2)cc1,21.5
8,COc1ccc(N2CC(C(=O)Nc3ccc(S(=O)(=O)N4CCCC4)cc3)CC2=O)cc1 (stereo not shown),10.6
9,O=c1[nH]c2ccccc2cc1CN(Cc1cccnc1)S(=O)(=O)c1ccc([N+](=O)[O-])cc1,-5.07
10,COc1ccccc1N1CCN(CC(=O)c2c(C)[nH]c3cc(C)ccc23)CC1,14.3
11,Cc1cccc(Oc2ccc(NC(=O)C3CC=CCC3C(=O)O)cc2)c1 (stereo not shown),10.5
12,O=C1CC(N(Cc2ccc3c(c2)OCO3)C(=O)Nc2ccc(F)cc2)C(=O)N1c1ccccc1 (stereo not shown),8.79
13,CCOC(=O)c1oc2ccccc2c1NC(=O)CCl,9.91
14,Cc1ccc(/C=C2\C(=O)ON=C2c2ccccc2)o1,13.3
15,Cc1ccc(NC(=O)C2COc3ccccc3O2)cc1S(=O)(=O)N1CCOCC1 (stereo not shown),3.14
16,CCc1ccc(CNC(=O)Cn2nc(-c3ccccc3)ccc2=O)cc1,8.46
17,COc1ccc(CCNc2ncnc3nc[nH]c23)cc1OC,6.4
18,O=C(COc1ccc2ccccc2c1)Nc1ccc(Cc2ccncc2)cc1,13
19,O=c1c(Cl)c(NCc2ccccc2)cnn1C12CC3CC(CC(C3)C1)C2,-5.22
20,CN(C)S(=O)(=O)n1cc(/C=C(\NC(=O)c2ccccc2)C(=O)N2CCOCC2)c2ccccc21,15.1
21,COc1cc2[nH]c(=O)n3nc(-c4ccccc4)nc3c2cc1OC,-6.85
22,COc1ccccc1NC(=O)Nc1ccc2c(c1)nc(C)n2C,0.679
23,C#CCOc1ccc(Cl)cc1/C=N/O,7.06
24,CC(=O)Nc1ccc(NC(=O)C2CC(=O)N(Cc3ccccc3)C2)cc1 (stereo not shown),3.46
25,COc1ccccc1C(=O)OCC(=O)c1cccc([N+](=O)[O-])c1,14.1
26,Cc1ccccc1NC(=S)Nc1cccc([N+](=O)[O-])c1,13.8
27,COc1ccccc1NC(=O)CSc1ccc2nnc(-c3ccncc3)n2n1,-7.81
